Assay results taken from PubChem BioAssay AID1508623 (National Center for Advancing Translational Sciences (NCATS), 2021).
Among all 48,000 compounds or so, about 450 (0.94%) were called active. The inconclusive results got no clear call from the source; some entries with a clear call stand among them for comparison. Calls come from the whole dose curve; as a rule, active = well fitted inhibition curve with a large enough effect; inconclusive = small, poorly fitted or top-dose-only effect; inactive = no such curve, though single readings can be large or run the other way. Potencies of inconclusive entries are doubtful fits and often do not repeat.

Assay: Primary qHTS for Identification of Small Molecule Inhibitors of Huntingtin Promoter Activity; note: nearly all actives have a fitted effect of over 50% in size
Conditions: HEK293 HTT promoter firefly luciferase reporter (activity 0% = vehicle and -100% = no light), 24 h; series mostly up to 57.5 µM
Summary of the method: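 Firefly luciferase readout (Dual-Glo, 10 min RT) after 24 h, 37 °C compound exposure (final up to 57.5 uM) of HEK293 reporter cells cultured 24 h beforehand; PTC124 at 50 uM final as control inhibitor; activity scaled vehicle 0%, zero RLU -100%.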
Potency is the fitted concentration of half-maximal effect; tags give direction and shape of the fitted curve.

Potency, inactive:
O=C(NCCc1ccccc1)C1CCC(CNS(=O)(=O)c2ccccc2)CC1 (stereo not given)
CNCCC(Oc1ccc(C(F)(F)F)cc1)c1ccccc1 (stereo not given)
CN(C)c1ccc(C2C=C(c3ccccc3)Nc3nnnn32)cc1 (stereo not given)
Fc1ccc(-n2ncc3c(N4CCC(Cc5ccccc5)CC4)ncnc32)cc1
C[C@@H](CN1CC(=O)NC(=O)C1)N1CC(=O)NC(=O)C1
COc1ccc(-n2nc3c(N4CCCC(C(=O)NCc5ccc(C)cc5)C4)nnc(C)c3c2C)cc1 (stereo not given)
COc1ccc(CNC(=O)CCc2cn(C)c3ccccc23)cc1
CCC1Oc2ccc(C)cc2N(CC(=O)NCc2ccc(OC)cc2)C1=O (stereo not given)
CCOC(=O)c1c(S(=O)(=O)N2CCCC(C(=O)Nc3cc(C)ccn3)C2)c(C)n(C)c1C (stereo not given)
Cc1cnc(CNC(=O)c2c(=O)c3ccc(N4CCCN(C)CC4)nc3n3c2sc2ccccc23)cn1
COc1cc2[nH]c(=O)n(CCCC(=O)NCc3ccc(Cl)cc3)c(=O)c2cc1OC
Cn1c(SCC(=O)c2ccc(F)cc2)nnc1-c1ccccc1Br
Cc1ccc(S(=O)(=O)Nc2nc3n(n2)C(c2ccccc2Cl)C=C(c2ccccc2)N3)cc1 (stereo not given)

Potency, inconclusive:
CC1CCC(C(=O)N(c2cc(C#CC(C)(C)C)sc2C(=O)O)C2CCC(O)CC2)CC1 (stereo not given) 27.3 µM [inhibitor, single point]
O=C(NCc1cccc(Cl)c1)c1ccc(NC(=O)N2CC3CCCN3c3ccccc32)cc1 (stereo not given) 28.2 µM [inhibitor, partial curve, poor fit]
CCCc1nc(SC)ncc1C(=O)N1CCN(c2ccc(Cl)cc2)CC1 39.8 µM [inhibitor, single point]
O=C(Nc1ccc2nc(SCC(=O)N3CCc4ccccc43)sc2c1)c1ccc(F)cc1 22.4 µM [inhibitor, single point]
CCCn1c(SCc2nc(-c3ccc(OC)c(OC)c3)no2)nnc1-c1ccccc1 28.2 µM [inhibitor, single point]
COc1ccc(NC(=O)C(=O)NCC(c2cccnc2)N2CCc3ccccc32)cc1OC (stereo not given) 39.8 µM [inhibitor, single point]
CN(Cc1ccccc1)S(=O)(=O)c1ccc(-c2cnc(C3CC3)o2)cc1 10 µM [inhibitor, partial curve, poor fit]
Cc1cccc(N2CCN(C(=O)CN3CCSc4ccccc43)CC2C)c1 (stereo not given) 39.8 µM [inhibitor, single point]
COc1ccc(Cl)cc1NC(=O)c1nnn(Cc2cccc(C(F)(F)F)c2)c1N 12.6 µM [inhibitor, partial curve]
NS(=O)(=O)c1ccc(CCNC(=O)Cn2c(-c3cccs3)cc3ccccc32)cc1 28.2 µM [inhibitor, single point]
CCc1nc(-c2cc(S(=O)(=O)N3CCN(c4ccccc4F)CC3)ccc2OC)no1 22.4 µM [inhibitor, single point]
Cc1cc(C)cc(NS(=O)(=O)c2ccc(N3CCCCS3(=O)=O)cc2)c1 11.2 µM [inhibitor, partial curve]
CCOc1cc(CN2CCN(S(=O)(=O)c3ccc(C)cc3)CC2)ccc1OC 22.4 µM [inhibitor, single point]
CCn1c(=O)sc2cc(NS(=O)(=O)c3ccc(C)cc3)ccc21 17.8 µM [inhibitor, partial curve]
COc1cc(NC(=O)CCc2nc3cccnc3n2Cc2cccs2)cc(OC)c1OC 17.8 µM [inhibitor, partial curve, poor fit]
CC1(C(=O)NC2CCCCC2)Cc2ccccc2C(=O)N1Cc1ccccc1Cl (stereo not given) 17.8 µM [inhibitor, partial curve, poor fit]
O=C(CCc1nc2cccnc2n1-c1ccccc1)Nc1ccc(Cl)c(Cl)c1 22.4 µM [inhibitor, single point]
COc1ccc(N(Cc2cccs2)C(=O)c2ccc(C(C)(C)C)cc2)cc1 39.8 µM [inhibitor, single point]
COc1ccc(N(C(=O)c2cccc(C)c2)S(=O)(=O)c2ccc(C)cc2)cc1 28.2 µM [inhibitor, partial curve]
O=C(Nc1nnc(S(=O)(=O)N2CCCc3ccccc32)s1)c1cccc(F)c1 31.6 µM [inhibitor, partial curve, poor fit]
CCn1c(SCc2ccc(F)cc2Cl)nnc1-c1nonc1NC(C)=O 22.4 µM [inhibitor, partial curve]
CCOc1ccccc1CNC(=O)c1ccc(NC(=O)N2CCSc3ncccc32)cc1 12.6 µM [inhibitor, partial curve]
COc1ccc2c(Sc3ccccc3)c(C(=O)NCCCN3CCCCC3)[nH]c2c1 39.8 µM [inhibitor, single point]
COc1ccc(/C=C/C(=O)Nc2nc3n(n2)C(c2ccccc2)C=C(c2ccc(Cl)cc2)N3)cc1 (stereo not given) 17.8 µM [inhibitor, partial curve, poor fit]
COc1ccc(NC(=O)c2cc(S(=O)(=O)N3CCCCCC3)cn2C)cc1Cl 39.8 µM [inhibitor, single point]
CCOc1ccc(CNC(=O)c2cccc(NC(=O)N3CCSc4ncccc43)c2)cc1 11.2 µM [inhibitor, partial curve, poor fit]
CCn1c(C(=O)N2CCC(C(=O)N3CCN(c4cc(C)ccc4C)CC3)CC2)cc2sccc21 31.6 µM [inhibitor, single point]
COc1ccc(CNC(=O)c2ccc3nc(CCc4ccccc4)oc3c2)cc1OC 28.2 µM [inhibitor, partial curve, poor fit]
CC(C)Cn1cc(NC(=O)Nc2cccc(C(F)(F)F)c2)c2ccccc2c1=O 35.5 µM [inhibitor, partial curve, poor fit]
Cc1cc(-c2ccc(C)c(S(=O)(=O)N3CCC(C)CC3)c2)on1 28.2 µM [inhibitor, single point]
CCOC(=O)c1c(C)sc(-c2c(-c3ccc4c(c3)OCCO4)[nH]c3c2c(=O)n(C)c(=O)n3C)c1O 2.24 µM [inhibitor, full curve]
CCCCN1C(=O)c2[nH]nc(-c3ccccc3O)c2C1c1ccc(C(C)(C)C)cc1 (stereo not given) 31.6 µM [inhibitor, single point]
COc1cccc(C2CC(=O)Nc3cc4c(cc32)OCO4)c1OC(C)C (stereo not given) 31.6 µM [inhibitor, single point]
CC(C)Oc1ccc(CNC(=O)C2CCN(c3nc4ccccc4nc3C(F)(F)F)CC2)cc1 3.55 µM [inhibitor, single point]
Cn1nc(-c2ccccc2F)c2cc(C(=O)NCCc3ccc(Cl)cc3)sc21 28.2 µM [inhibitor, single point]
CCOC(=O)c1c(NC(=O)c2ccc(S(=O)(=O)N3CCC(C)CC3)cc2)sc2c1CCN(CC)C2 39.8 µM [inhibitor, single point]
Cc1cccc(-n2cc(-c3ccccc3)c3c(NC4CCCC4)ncnc32)c1 31.6 µM [inhibitor, single point]
Cc1cccc(-n2c(Cc3ccccc3)nnc2SCc2nc(-c3cccs3)no2)c1 28.2 µM [inhibitor, single point]
CCOC(=O)c1ccc(N2C(=O)c3n[nH]c(-c4ccco4)c3C2c2ccc(O)c(OCC)c2)cc1 (stereo not given) 39.8 µM [inhibitor, single point]
Cc1cccc(Nc2nnc(-c3ccc(C)c(S(=O)(=O)NCC4CCCO4)c3)c3ccccc23)c1 (stereo not given) 25.1 µM [inhibitor, partial curve, poor fit]
COC(=O)c1ccc(NC(=O)CN2C(=O)CCc3cc(S(=O)(=O)N4CCCCC4)ccc32)cc1 14.1 µM [inhibitor, partial curve]
CCOC(=O)c1cc(-c2ccccc2)n(CCCC(=O)Nc2cccc(C)c2C)c1C 14.1 µM [inhibitor, partial curve, poor fit]
CCc1ccccc1Nc1nn2c(=O)c3ccc(C(=O)NC(C)c4ccccc4)cc3nc2s1 (stereo not given) 22.4 µM [inhibitor, partial curve]
Cc1ccc(NC(=O)C(=O)NCC(c2cccnc2)N2CCN(c3ccccc3F)CC2)cc1Cl (stereo not given) 25.1 µM [inhibitor, partial curve, poor fit]
COc1ccc(C)cc1NC(=O)CSc1ccc(-c2ccccn2)nn1 25.1 µM [inhibitor, single point]
O=C(Nc1ccc(Cl)cc1)c1cc(S(=O)(=O)N2CCc3ccccc32)ccc1F 28.2 µM [inhibitor, partial curve]
Cc1cc(C)cc(NC(=O)C2CCC(CNS(=O)(=O)c3ccc4c(c3)C(C)(C)C(=O)N4C)CC2)c1 (stereo not given) 31.6 µM [inhibitor, partial curve, poor fit]
